About 5,000 (1.2%) of roughly 410,000 compounds were called active. The inconclusive results got no clear call from the source; some entries with a clear call stand among them for comparison. Calls follow the shape of the dose curve; as a rule, active = well fitted inhibition curve with a large enough effect; inconclusive = small, poorly fitted or top-dose-only effect; inactive = no such curve, though single readings can be large or run the other way. Where the call is inconclusive, the potency comes from a doubtful curve fit.
Experiment: qHTS for Inhibitors of TGF-b; also: nearly all actives have a fitted effect of over 65% in size
Settings: HepG2 CAGA-GFP TGF-b/SMAD3 reporter, GFP fluorescence, 18 h, TGF-beta stimulated, 500 pg/mL final; series mostly up to 46.1 µM
Method in brief: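 TGF-beta reporter screen: HEPG2 CAGA-GFP, 1% FBS, 500 pg/mL TGF-beta final, 18 h; per-cell GFP summed per well; curves fitted and categorized by class.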
Potency is read from the fitted curve at half-maximal effect; tags tell the direction and shape of the fitted curve.

| Structure (SMILES) | Potency |
| --- | --- |
| COc1ccc(-c2cc(C(C)=O)c(C)n2CCC(=O)Nc2cc(C)ccc2OC)cc1 | inactive |
| CCOc1ccc(N(Cc2cc3ccc(C)cc3[nH]c2=O)C(=O)COC)cc1 | inconclusive: 3.98 µM [inhibitor, partial curve, poor fit] |
| O=[N+]([O-])c1ccc(Oc2cccc(C(F)(F)F)c2)nc1 | inactive |
| CC(=O)NCCc1nc2ccccc2n1CCCCOc1ccc(Cl)cc1 | inconclusive: 35.5 µM [inhibitor, single point] |
| Cc1ccc(-c2cc(-c3ccc(Cl)cc3)c(C#N)c(N)n2)o1 | inconclusive: 35.5 µM [inhibitor, single point] |
| CCOc1cc(/C=N/NC(N)=O)cc(Br)c1OCC(=O)Nc1ccccc1C | inconclusive: 1.78 µM [inhibitor, full curve, poor fit] |
| CCOC(=O)N1CCN(CCC(=O)Nc2ccc(OC)cc2)CC1 | inconclusive: 0.562 µM [inhibitor, partial curve, poor fit] |
| CCOC(=O)C[C@H]1c2ccc(C(F)(F)F)cc2S(=O)(=O)N1c1ccccc1 | active: 14.1 µM |
| Cc1ccc(NC(c2ccccc2)c2nc3ccccc3[nH]c2=O)cc1 (stereo not drawn) | inconclusive: 35.5 µM [inhibitor, single point] |
| O=C(CSc1nc2cc3ccccc3cc2[nH]1)Nc1cccc(C(F)(F)F)c1 | inconclusive: 35.5 µM [inhibitor, single point] |
| Cc1ccc(SCC(=O)NC(=O)Nc2ccc3c(c2)OCCO3)c(C)c1 | inconclusive: 0.112 µM [inhibitor, full curve, poor fit] |
| COc1cccc(N2[C@@H](CC(=O)O)c3ccccc3S2(=O)=O)c1 | inconclusive: 17.8 µM [inhibitor, partial curve, poor fit] |
| COc1ccc(CCCNC(=O)C2Cc3c(-c4ccc5c(c4)OCO5)ccnc3O2)cc1 (stereo not drawn) | inactive |
| CCOc1ccc(Nc2nc(-c3sc(N)nc3C)cs2)cc1 | inconclusive: 35.5 µM [inhibitor, single point] |
| COC(=O)Cn1c(=NC(=O)CSC(C)=O)sc2ccccc21 | inactive |
| N#Cc1c(NC(=O)/C=C/c2ccco2)sc2c1CCCC2 | inactive |
| Cc1ccc(C(=O)Nc2ccc(OCc3ccccc3)cc2)s1 | inconclusive: 35.5 µM [inhibitor, partial curve, poor fit] |
| Cc1noc(C)c1CSc1nnnn1-c1ccc(Cl)cc1 | inactive |
| CCn1cc(CN2CCC(C(=O)Nc3cccc(-c4cccc(Cl)c4)c3)CC2)c(C)n1 | inconclusive: 25.1 µM [inhibitor, single point] |
| CC(C)CC(C(=O)NCc1ccccn1)N1C(=O)c2ccccc2C1=O (stereo not drawn) | inconclusive: 25.1 µM [inhibitor, single point] |
| COc1ccc2[nH]c3c(c2c1)CCN1C(=O)N([C@@H](C)C(=O)NC2CCN(Cc4ccccc4)CC2)C(=O)[C@]31C | inconclusive: 35.5 µM [inhibitor, single point] |
| COc1ccc(Cn2nnnc2CN(Cc2cc3cccc(C)c3[nH]c2=O)C2CCCC2)cc1 | inconclusive: 35.5 µM [inhibitor, single point] |
| COCCNC(=O)CSc1nc(-c2ccc(F)cc2)[nH]c1-c1ccc(Cl)cc1 | inconclusive: 3.55 µM [inhibitor, full curve] |

| Structure (SMILES) | Potency |
| --- | --- |
| CCC1(c2ccc(C)cc2)NC(=O)N(CC(=O)Nc2cccc(S(=O)(=O)N3CCCC3)c2)C1=O (stereo not drawn) | inconclusive: 12.6 µM [inhibitor, single point] |
| Cc1cc(C)cc(OCC(=O)Nc2cccc(-c3nc4ncccc4o3)c2)c1 | inactive |
| Cc1ccc(-c2nc3ccc(Cl)cc3c(=O)n2O)cc1 | inactive |
| Nc1nc(=S)c2[nH]cnc2[nH]1 | inconclusive: 1.41 µM [inhibitor, full curve] |
| CCOc1ccc(C(=O)Nc2ccc(S(=O)(=O)N(Cc3ccccc3)c3ccccc3)cc2)cc1 | inconclusive: 0.251 µM [inhibitor, full curve, poor fit] |
| CCc1ccc(C(C)NC(=O)COC(=O)c2ccc(-n3cnnn3)cc2)cc1 (stereo not drawn) | inactive |
| CCc1nnc(NC(=O)CCC(=O)NC2CCCC2)s1 | inactive |
| O=C(OCn1nnc2ccccc2c1=O)c1ccc(F)c(S(=O)(=O)N2CCOCC2)c1 | inactive |
| Cc1cc(N2CCCCC2)nc2ccc(NC(=O)c3ccc(F)cc3)cc12 | inconclusive: 25.1 µM [inhibitor, single point] |
| CCN(CC(=O)Nc1cccc(OC)c1)CC(=O)Nc1ccc(Br)c(C)c1 | inconclusive: 22.4 µM [inhibitor, single point] |
| O=C1CC(=C(c2ccccc2)c2ccccc2)C(=O)N1CCCCN1CCN(c2ccccc2)CC1 | inconclusive: 35.5 µM [inhibitor, partial curve, poor fit] |
| COC(=O)C1CCN(C(=O)Cc2c(OC)ccc3cc(Br)ccc23)CC1 | inconclusive: 0.158 µM [inhibitor, full curve, poor fit] |
| COc1ccc(OC)c(NC(=O)C2CCN(S(=O)(=O)c3ccc(C)cc3)CC2)c1 | inactive |
| Fc1ccccc1-c1nc(NCc2ccccc2)c2ccccc2n1 | inconclusive: 20 µM [inhibitor, partial curve, poor fit] |
| COc1ccc(-c2noc(C3CC(=O)N(c4ccc(C)c(F)c4)C3)n2)c(OC)c1 (stereo not drawn) | inconclusive: 35.5 µM [inhibitor, single point] |
| CCN1CCN(C(=O)c2ccc3c(c2)N(Cc2cccc(Cl)c2)C(=O)c2ccccc2S3(=O)=O)CC1 | inconclusive: 0.562 µM [inhibitor, full curve, poor fit] |
| CCc1ccc(CNC(=O)c2ccc3c(c2)nc2n3CCOC2)cc1 | inactive |
| COc1ccc(CNC(=O)C2(C)Cc3c(-c4ccc(N(C)C)cc4)ccnc3O2)cc1OC (stereo not drawn) | inconclusive: 10 µM [inhibitor, partial curve, poor fit] |
| Cc1ccc(C)c(N2CCN(c3ncccc3[N+](=O)[O-])CC2)c1 | inconclusive: 35.5 µM [inhibitor, single point] |
| Clc1ccc(-c2nc3ccncc3[nH]2)cc1 | inactive |
| c1ccc(CNc2nc(NCc3ccccc3)c3ccccc3n2)cc1 | inconclusive: 11.2 µM [inhibitor, partial curve, poor fit] |
| COc1cc(OC)c(OC)cc1CN1CCc2nc(N3CCN(c4ncccn4)CC3)ncc2C1 | inconclusive: 3.55 µM [inhibitor, full curve] |
| CC(C)CC(=O)OC1C(N2CCOCC2)c2c(ccc(/C=C/C(=O)N3CCOCC3)c2O)OC1(C)C (stereo not drawn) | inconclusive: 5.62 µM [inhibitor, single point] |

| Structure (SMILES) | Potency |
| --- | --- |
| Cc1ccc2c(c1)c(C)c(C)n2CC(O)CN1CCCCC1C (stereo not drawn) | inactive |
| COc1ccc(NC(=O)NN(C(=O)c2ccccc2)C(C)(C)C)cc1 | inconclusive: 20 µM [inhibitor, single point] |
| CC(C)(CCc1ccccn1)C(=O)C(CCc1ccccn1)CCc1ccccn1 | inactive |
| COc1ccc(C(=O)Nc2cccc(/C=C/c3nc4ccccc4c(=O)[nH]3)c2)cc1 | inconclusive: 10 µM [inhibitor, partial curve, poor fit] |
| O=C(NCCCO)C(=O)NCc1ccccn1 | inactive |
| CCOC(=O)c1cccc(NC(=O)c2cc3c(Cl)nc4ccc(C)cc4c3s2)c1 | inactive |
| O=C(NCCS(=O)(=O)N1CCN(c2ccc(F)cc2)CC1)c1ccc(Br)o1 | inconclusive: 35.5 µM [inhibitor, single point] |
| COc1cc2nc(Cl)nc(N3CCOCC3)c2cc1OC | inconclusive: 3.16 µM [inhibitor, single point] |
| CCc1ccc(NS(=O)(=O)c2ccc3[nH]cc(C(=O)NC4CCCC4)c(=O)c3c2)cc1 | inconclusive: 35.5 µM [inhibitor, single point] |
| CN1/C(=C\C(=O)c2ccco2)C(C)(C)c2ccccc21 | inconclusive: 11.2 µM [inhibitor, partial curve] |
| COc1ccc([C@H]2/C=C\CN(S(=O)(=O)c3ccc4ccccc4c3)[C@@H](C)C(=O)N2Cc2ccc(F)cc2)cc1 | inconclusive: 22.4 µM [inhibitor, partial curve] |
| CCc1ccccc1NC(=O)CSC1=C(C#N)C(c2ccc(O)c(OC)c2)C2=C(CCCC2=O)N1 (stereo not drawn) | inconclusive: 35.5 µM [inhibitor, single point] |
| COc1ccc(C/C(N)=N/OC(=O)c2ccc(Cl)cc2)cc1 | inactive |
| O=C(CSc1nnc(-c2n[nH]c3ccccc23)n1-c1ccccc1)Nc1ccccc1Cl | inconclusive: 17.8 µM [inhibitor, single point] |
| O=C1CCSC2(C(=O)N(Cc3ccc(F)cc3)c3ccccc32)N1c1ccccc1 (stereo not drawn) | inconclusive: 35.5 µM [inhibitor, partial curve, poor fit] |
| C=CC[C@H](CC(=O)NCCO)C(=O)NCCOC(=O)[C@@H](CC=C)CC(=O)OC(C)(C)C | inactive |
| Brc1ccc(C[n+]2ccccc2)cc1 | inconclusive: 3.16 µM [inhibitor, single point] |
| Cc1cc(/C=C(\C#N)C(=O)O)c(C)n1CC1CCCO1 (stereo not drawn) | inactive |
| CSc1ncccc1C(=O)OCC(=O)N1CCN(C(=O)c2ccco2)CC1 | inactive |
| CCCc1ccc2oc(C(=O)N(C)CCn3ccnc3C)c(C)c2c1 | inconclusive: 35.5 µM [inhibitor, single point] |
| CNc1cccc(-c2cc(OC)c(OC)c(OC)c2)n1 | inactive |
| Fc1ccccc1CNCCCSc1nnnn1-c1ccccc1 | inconclusive: 28.2 µM [inhibitor, partial curve, poor fit] |

Source: PubChem BioAssay AID588855 (National Center for Advancing Translational Sciences (NCATS), 2011)
